The other results are listed elsewhere or left out.
Experiments:
Test in all cases: glycan array binding signal (z-score within array); higher = stronger binding
Details in all cases: glycan notation: IUPAC condensed, linker removed
[1] = target: Gal(b1-3)GlcNAc(b1-2)Man(a1-3)[Gal(b1-3)GlcNAc(b1-2)Man(a1-6)]Man(b1-4)GlcNAc(b1-4)[Fuc(a1-6)]GlcNAc
Summary of the method: (§1)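 Columns mapping to the same glycan were averaged after glycan names were converted to IUPAC-condensed notation. The data come from 3228 arrays in the Consortium for Functional Glycomics database, limited to those with an available protein sequence. Binding is reported as a within-array Z-score averaged across arrays of one protein sequence and across linkers.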

[2] = target: Gal(b1-3)GlcNAc(b1-2)Man(a1-3)[GlcNAc(b1-4)][Gal(b1-3)GlcNAc(b1-2)Man(a1-6)]Man(b1-4)GlcNAc(b1-4)GlcNAc
Summary of the method: as §1

[3] = target: Gal(b1-3)GlcNAc(b1-2)[Gal(b1-3)GlcNAc(b1-6)]Man(a1-6)[Gal(b1-3)GlcNAc(b1-2)Man(a1-3)]Man(b1-4)GlcNAc(b1-4)GlcNAc
Summary of the method: as §1

[4] = target: Gal(b1-3)GlcNAc(b1-3)Gal(b1-3)GlcNAc
Summary of the method: as §1

[5] = target: Gal(b1-3)GlcNAc(b1-3)Gal(b1-4)Glc
Summary of the method: as §1

[6] = target: Gal(b1-3)GlcNAc(b1-3)Gal(b1-4)GlcNAc
Summary of the method: as §1

[7] = target: Gal(b1-3)GlcNAc(b1-3)Gal(b1-4)GlcNAc(b1-2)Man(a1-3)[Gal(b1-3)GlcNAc(b1-3)Gal(b1-4)GlcNAc(b1-2)Man(a1-6)]Man(b1-4)GlcNAc(b1-4)GlcNAc
Summary of the method: as §1

[8] = target: Gal(b1-3)GlcNAc(b1-3)Gal(b1-4)GlcNAc(b1-2)[Gal(b1-3)GlcNAc(b1-3)Gal(b1-4)GlcNAc(b1-6)]Man(a1-6)[Gal(b1-3)GlcNAc(b1-3)Gal(b1-4)GlcNAc(b1-2)Man(a1-3)]Man(b1-4)GlcNAc(b1-4)[Fuc(a1-6)]GlcNAc
Summary of the method: as §1

[9] = target: Gal(b1-3)GlcNAc(b1-3)Gal(b1-4)GlcNAc(b1-3)Gal(b1-4)GlcNAc(b1-2)[Gal(b1-3)GlcNAc(b1-3)Gal(b1-4)GlcNAc(b1-3)Gal(b1-4)GlcNAc(b1-6)]Man(a1-6)[Gal(b1-3)GlcNAc(b1-3)Gal(b1-4)GlcNAc(b1-3)Gal(b1-4)GlcNAc(b1-2)Man(a1-3)]Man(b1-4)GlcNAc(b1-4)[Fuc(a1-6)]GlcNAc
Summary of the method: as §1

[10] = target: Gal(b1-3)GlcNAc(b1-3)Gal(b1-4)GlcNAc(b1-6)[Gal(b1-3)GlcNAc(b1-3)]Gal(b1-4)Glc
Summary of the method: as §1

[11] = target: Gal(b1-3)GlcNAc(b1-3)Gal(b1-4)[Fuc(a1-3)]GlcNAc
Summary of the method: as §1

[12] = target: Gal(b1-3)GlcNAc(b1-3)Gal(b1-4)[Fuc(a1-3)]GlcNAc(b1-6)[Gal(b1-3)GlcNAc(b1-3)]Gal(b1-4)Glc
Summary of the method: as §1

[13] = target: Gal(b1-3)GlcNAc(b1-3)GalNAc
Summary of the method: as §1

[14] = target: Gal(b1-3)GlcNAc(b1-6)Gal(b1-4)GlcNAc
Summary of the method: as §1

[15] = target: Gal(b1-3)GlcNAc(b1-6)GalNAc
Summary of the method: as §1

[16] = target: Gal(b1-3)GlcNAc(b1-6)[Gal(b1-3)]GalNAc
Summary of the method: as §1

[17] = target: Gal(b1-3)GlcNAc6S
Summary of the method: as §1

[18] = target: Gal(b1-3)[Fuc(a1-4)]GlcNAc
Summary of the method: as §1

[19] = target: Gal(b1-3)[Fuc(a1-4)]GlcNAc(b1-2)Man
Summary of the method: as §1

[20] = target: Gal(b1-3)[Fuc(a1-4)]GlcNAc(b1-2)Man(a1-3)[Gal(b1-3)[Fuc(a1-4)]GlcNAc(b1-2)Man(a1-6)]Man(b1-4)GlcNAc(b1-4)[Fuc(a1-6)]GlcNAc
Summary of the method: as §1

[21] = target: Gal(b1-3)[Fuc(a1-4)]GlcNAc(b1-3)Gal(b1-3)[Fuc(a1-4)]GlcNAc
Summary of the method: as §1

[22] = target: Gal(b1-3)[Fuc(a1-4)]GlcNAc(b1-3)Gal(b1-4)[Fuc(a1-3)]GlcNAc
Summary of the method: as §1

[23] = target: Gal(b1-3)[Fuc(a1-4)]GlcNAc(b1-6)GalNAc
Summary of the method: as §1

[24] = target: Gal(b1-3)[GlcNAc(b1-6)]GalNAc
Summary of the method: as §1

[25] = target: Gal(b1-3)[Neu5Ac(a2-6)]GalNAc
Summary of the method: as §1

[26] = target: Gal(b1-3)[Neu5Ac(a2-6)]GlcNAc(b1-4)Gal(b1-4)Glc
Summary of the method: as §1

[27] = target: Gal(b1-3)[Neu5Ac(b2-6)]GalNAc
Summary of the method: as §1

[28] = target: Gal(b1-4)Gal
Summary of the method: as §1

[29] = target: Gal(b1-4)GalNAc(a1-3)[Fuc(a1-2)]Gal(b1-4)GlcNAc
Summary of the method: as §1

[30] = target: Gal(b1-4)GalNAc(b1-3)[Fuc(a1-2)]Gal(b1-4)GlcNAc
Summary of the method: as §1

[31] = target: Gal(b1-4)Glc
Summary of the method: as §1

[32] = target: Gal(b1-4)Glc6S
Summary of the method: as §1

[33] = target: Gal(b1-4)GlcNAc
Summary of the method: as §1

[34] = target: Gal(b1-4)GlcNAc(a1-6)Gal(b1-4)GlcNAc
Summary of the method: as §1

[35] = target: Gal(b1-4)GlcNAc(b1-2)Man
Summary of the method: as §1

[36] = target: Gal(b1-4)GlcNAc(b1-2)Man(a1-3)Man(b1-4)GlcNAc(b1-4)GlcNAc
Summary of the method: as §1

[37] = target: Gal(b1-4)GlcNAc(b1-2)Man(a1-3)[Gal(b1-4)GlcNAc(b1-2)Man(a1-6)]Man(b1-4)GlcNAc(b1-4)GlcNAc
Summary of the method: as §1

B1: Cohesin-marm-DC-ASGPR (protein)
chain: LDITSHHHHHHDDLDAVRIKVDTVNAKPGDTVRIPVRFSGIPSKGIANCDFVYSYDPNVLEIIEIEPGDIIVDPNPDKSFDTAVYPDRKIIVFLFAEDSGTGAYAITKDGVFATIVAKVKEGAPNGLSVIKFVEVGGFANNDLVEQKTQFFDGGVNVGDTTEPATPTTPVTTPTTTDDLDAASSKFQRDLVTLRTDFSNFTSNTLAEIQALTSQGSSLQETIASLKAEVEGHKQELQAGASELQEHNKQKAHLGRCPHTCVCPSSFVCVPVHSEILLRVQQLVQDLNKLSCQVAILKNNATTERTCCPINWVEHQGSCYWFSRSGKTWPEAERYCQLENTHLVVINSREEQNFVQAHLGSAYTWMGLSDPEGVWKWVDGTDYSSGFQNWKPGQPDDWQGHGLGGGEDCAHFHPDGRWNDDVCQRSYHWVCEAGLTQASQDSHAS
glycan array binding signal (z-score) [1]: -0.3 | glycan array binding signal (z-score) [2]: -0.218 | glycan array binding signal (z-score) [3]: -0.289 | glycan array binding signal (z-score) [4]: -0.282 | glycan array binding signal (z-score) [5]: -0.303 | glycan array binding signal (z-score) [6]: -0.293 | glycan array binding signal (z-score) [7]: -0.292 | glycan array binding signal (z-score) [8]: -0.165 | glycan array binding signal (z-score) [9]: -0.242 | glycan array binding signal (z-score) [10]: -0.303 | glycan array binding signal (z-score) [11]: -0.303 | glycan array binding signal (z-score) [12]: -0.31 | glycan array binding signal (z-score) [13]: -0.307 | glycan array binding signal (z-score) [14]: -0.28 | glycan array binding signal (z-score) [15]: 3.52 | glycan array binding signal (z-score) [16]: -0.272 | glycan array binding signal (z-score) [17]: -0.296 | glycan array binding signal (z-score) [18]: -0.253 | glycan array binding signal (z-score) [19]: -0.295 | glycan array binding signal (z-score) [20]: -0.265 | glycan array binding signal (z-score) [21]: -0.277 | glycan array binding signal (z-score) [22]: -0.298 | glycan array binding signal (z-score) [23]: 0.837 | glycan array binding signal (z-score) [24]: -0.153 | glycan array binding signal (z-score) [25]: -0.286 | glycan array binding signal (z-score) [26]: -0.227 | glycan array binding signal (z-score) [27]: -0.313 | glycan array binding signal (z-score) [28]: -0.262 | glycan array binding signal (z-score) [29]: -0.262 | glycan array binding signal (z-score) [30]: -0.301 | glycan array binding signal (z-score) [31]: -0.291 | glycan array binding signal (z-score) [32]: -0.232 | glycan array binding signal (z-score) [33]: -0.248 | glycan array binding signal (z-score) [34]: -0.282 | glycan array binding signal (z-score) [35]: -0.263 | glycan array binding signal (z-score) [36]: -0.282 | glycan array binding signal (z-score) [37]: -0.277

— the supplement of paper PMC8728848
